Data published in PubChem BioAssay AID1460 (National Center for Advancing Translational Sciences (NCATS), 2008).
About 5,800 (2.1%) of roughly 270,000 compounds were called active. Another 16% or so got no clear call; they are omitted. Calls come from the whole dose curve; as a rule, active = well fitted inhibition curve with a large enough effect; inconclusive = small, poorly fitted or top-dose-only effect; inactive = flat fitted curve, though single readings scatter. This is a selection; strong and weak results do not stand in their true shares. More than one record can exist for a structure, and the calls need not agree.

Each compound was assayed against Microtubule-associated protein tau (Homo sapiens) (UniProt P10636) (assay: qHTS for Inhibitors of Tau Fibril Formation, Thioflavin T Binding). Conditions: recombinant tau K18 P301L (four-repeat tau fragment), heparin-induced fibrillization, ThT fluorescence; series mostly up to 57.4 µM; activity, negative = inhibition: at the top concentration.
Chain of UniProt P10636 (P10636 whole entry, looked up, the tested form may be a part): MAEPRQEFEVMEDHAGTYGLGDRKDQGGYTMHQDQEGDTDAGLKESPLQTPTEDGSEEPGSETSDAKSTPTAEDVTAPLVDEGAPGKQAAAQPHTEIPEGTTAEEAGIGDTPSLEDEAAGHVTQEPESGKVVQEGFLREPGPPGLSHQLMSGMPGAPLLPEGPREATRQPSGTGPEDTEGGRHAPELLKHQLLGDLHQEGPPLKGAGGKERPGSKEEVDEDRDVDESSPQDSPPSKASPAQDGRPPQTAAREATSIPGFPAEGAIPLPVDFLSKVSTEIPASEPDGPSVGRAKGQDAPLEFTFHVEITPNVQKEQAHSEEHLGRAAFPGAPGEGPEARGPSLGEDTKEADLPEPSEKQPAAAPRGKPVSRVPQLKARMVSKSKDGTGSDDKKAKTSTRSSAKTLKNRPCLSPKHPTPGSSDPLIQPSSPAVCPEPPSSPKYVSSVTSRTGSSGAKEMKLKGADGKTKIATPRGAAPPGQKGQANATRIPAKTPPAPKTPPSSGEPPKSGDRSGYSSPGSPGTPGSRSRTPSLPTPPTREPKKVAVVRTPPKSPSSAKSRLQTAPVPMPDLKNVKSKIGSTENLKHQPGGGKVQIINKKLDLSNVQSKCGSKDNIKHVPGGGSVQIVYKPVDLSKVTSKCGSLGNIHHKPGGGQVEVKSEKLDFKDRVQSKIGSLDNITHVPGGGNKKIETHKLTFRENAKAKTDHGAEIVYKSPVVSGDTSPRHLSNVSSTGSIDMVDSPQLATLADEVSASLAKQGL
Excerpt: NIH Molecular Libraries Probe Production Network [MLPCN]
NIH Chemical Genomics Center [NCGC]
Assay Provider: Carlo Ballatore, University of Pennsylvania
The microtubule-associated protein tau is an abundant protein in the axons of neurons that stabilizes microtubules. With its ability to modulate microtubule dynamics, tau contributes directly or indirectly, to key structural and regulatory cellular functions. Particularly important is the influence tau exerts on axonal transport, which allows signaling molecules, trophic factors and other essential cellular constituents to travel along the axons. Under pathological conditions, tau becomes sequestered into insoluble aggregates called neurofibrillary tangles. This phenomenon is believed to have pathological consequences by promoting axonal transport deficits that ultimately lead to synaptic dysfunction and neuronal loss. To identify inhibitors of tau aggregation, a heparin-induced tau fibril formation assay was used that employed a recombinantly expressed fragment of tau, K18 (Q242-E372), bearing a P301L mutation (Gustke et al. 1994; Hong et al. 1998). This assay monitors tau fibrillization by Thioflavin T (ThT) fluorescence.
Gustke, N., B. Trinczek, et al. (1994). "Domains of tau protein and interactions with microtubules." Biochemistry 33(32): 9511-22.
Hong, M., V. Zhukareva, et al. (1998).
Li, W. and V. M. Lee (2006).
von Bergen, M., S. Barghorn, et al. (2001). "Mutations of tau protein in frontotemporal dementia promote aggregation of paired helical filaments by enhancing local beta-structure." J Biol Chem 276(51): 48165-74.
NCGC Assay Protocol Summary:
For screening, 2 uL/well human K18 P301L (15 uM unlabeled and 0.24 uM Alexa 594-labeled tau, final concentrations) in reagent buffer (100 mM sodium acetate pH 7) was dispensed into black solid 1536-well plates (Grenier) using a solenoid-based dispenser. Following transfer of 23 nL compound or DMSO vehicle by a pin tool, 2 uL/well heparin (20 uM final concentration) in reagent buffer was added and the plate centrifuged 15 s at 1000 RPM. Plates were incubated 6 hr at 37 C and then 1 uL/well ThT (30 uM final concentration) was added. After a 1 hr ambient incubation, the plates were read by an Envision (Perkin Elmer) to monitor ThT fluorescence (450/8 nm excitation and 510/23 nm emission).
Keywords: NIH Roadmap, MLPCN, MLI, MLSMR, NCGC, qHTS, tau, tauopathies, Alzheimer's disease, fibril, neurodegeneration, aggregation
% is set by controls: 0 for no effect and ±100 for the full control effect; potency is the fitted concentration of half-maximal effect.
Note: nearly all actives have a fitted effect of over 55% in size.

Compound	Potency	activity, negative = inhibition
Cc1ccccc1N1C(=O)CC(=O)NC1=O	active: 15.8 µM	
CC(=O)C1=C(O)C2C3c4c[nH]c5cccc(c45)CC3C(C)(C)N2C1=O (stereo not drawn)		inactive: -23%
COc1ccc(CCn2c(NN=C3CCCCC3)nc3c2c(=O)[nH]c(=O)n3C)cc1	active: 28.2 µM	
CN[C@@H]1C[C@@H](c2ccc(Cl)c(Cl)c2)c2ccccc21		inactive: -19.7%
O=[N+]([O-])c1ccc(Sc2nc3ccccc3o2)c([N+](=O)[O-])c1	active: 14.1 µM	
Cc1nonc1OCCNc1ccc([N+](=O)[O-])c2cccnc12	active: 7.08 µM	
COC(=O)[C@@]1(Cc2ccc(F)cc2)[C@H]2c3cc(C(=O)N(C)C)[nH]c3C[C@H]2CN1C(=O)c1ccccc1		inactive: -11.2%
NC1CC1c1ccccc1 (stereo not drawn)		inactive: -14.2%
c1cc2c(cc1[C@H]1OC[C@H]3[C@@H]1CO[C@@H]3c1ccc3c(c1)OCO3)OCO2		inactive: -11.7%
CC(=O)[C@@]1(O)CC[C@H]2[C@@H]3C[C@H](C)C4=CC(=O)CC[C@]4(C)[C@H]3CC[C@@]21C		inactive: -20.3%
CN(CCc1ccc(Cl)c(Cl)c1)[C@H]1CCCC[C@H]1N1CCCC1		inactive: -7.66%
CC(=O)[C@]1(O)CCC2C3CCC4=CC(=O)CC[C@@]4(C)C3CC[C@]21C (stereo partly drawn)		inactive: -16.4%
CC(C)CC(N(C)C)C1(c2ccc(Cl)cc2)CCC1 (stereo not drawn)		inactive: -0.0402%
CCCN(CCC)[C@@H]1CCc2ccc(O)cc2C1	inactive	
Oc1ccc2c3c1O[C@H]1c4[nH]c5ccccc5c4C[C@@]4(O)C(C2)N(CC2CC2)CCC314 (stereo partly drawn)	inactive	
O=C1C=C2C=C[C@@H]3C[C@@]2(O1)[C@H]1CCCCN31	inactive	
COc1ccc(OC)c(C(c2c(O)c3ccccc3oc2=O)c2c(C)n(C)n(-c3ccccc3)c2=O)c1 (stereo not drawn)		inactive: -12.5%
CC[C@]1(O)CC(O[C@@H]2CC(N(C)C)C(O)C(C)O2)c2c(cc3c(c2O)C(=O)c2c(O)cccc2C3=O)C1C(=O)OC (stereo partly drawn)	active: 8.91 µM	
CC(C(=O)O)c1ccc(-c2ccccc2)c(F)c1 (stereo not drawn)	inactive	
Cc1cc(C)cc(N2C(=O)NC(=O)/C(=C\c3cccn3-c3ccc(Cl)cc3)C2=O)c1		inactive: -3.1%
CCCC/C(C)=C/[C@@H](NP(=O)(c1ccccc1)c1ccccc1)c1ccccc1		inactive: 7.7%

Compound	Potency	activity, negative = inhibition
Oc1ccc2c3c1O[C@H]1c4[nH]c5c(c4C[C@@]4(O)[C@@H](C2)N(CC2CC2)CC[C@]314)C[C@@]1(O)[C@H]2Cc3ccc(O)c4c3[C@@]1(CCN2CC1CC1)[C@H]5O4		inactive: -18%
COc1ccc2[nH]cc(CCN)c2c1	inactive	
CN1CC[C@@]23CCCCC2C1Cc1ccc(O)cc13 (stereo partly drawn)		inactive: -14.2%
CC(=O)[C@H]1CC[C@H]2[C@@H]3CCC4=CC(=O)CC[C@]4(C)[C@H]3CC[C@]12C	inactive	
CN1CCN(C(=O)O[C@@H]2c3nccnc3C(=O)N2c2ccc(Cl)cn2)CC1		inactive: -2.58%
Cc1o[nH]c(=O)c1C[C@@H](N)C(=O)O		inactive: -9.37%
C=C[C@H]1CN2CCC1C[C@@H]2C(O)c1ccnc2ccccc12 (stereo partly drawn)		inactive: 3.85%
COc1ccc(Cc2nccc3cc(OC)c(OC)cc23)cc1OC	inactive	
O=C1CSC(c2ccccc2Cl)c2cc(Cl)ccc2N1 (stereo not drawn)		inactive: -11.4%
C=C(C)CN1CC[C@@]23c4c5ccc(O)c4O[C@H]2c2[nH]c4ccccc4c2C[C@]3(O)[C@@H]1C5		inactive: -2.32%
CCOC(=O)c1cc2c(cn1)[nH]c1ccccc12	inactive	
CCCN(CCC)C1CCc2ccc(O)cc2C1 (stereo not drawn)		inactive: 1.41%
O=C(O)CC1OCC=C2CN3CCC45C6=CC(=O)C(=O)C([N+](=O)[O-])=C6NC4C1C2CC35 (stereo not drawn)	active: 7.08 µM	
CN1CCCC1c1cccnc1 (stereo not drawn)		inactive: -1.01%
CC(C)N1C(=O)/C(=C/C=C/c2ccco2)C(=O)N(Cc2ccco2)C1=O	active: 28.2 µM	
Nc1nc2ccc(Cl)cc2c2nc(-c3ccco3)nn12	inactive	
CN1CCC[C@@H]1c1cccnc1		inactive: -5.76%
CN(C(=O)Cc1ccc(Cl)c(Cl)c1)C(CN1CCCC1)c1cccc(OCC(=O)O)c1 (stereo not drawn)		inactive: -1.02%
COc1ccc(N=Nc2c(O)[nH]c(=S)[nH]c2=O)cc1	active: 2.82 µM	
CN1CCN(C(=O)OC2c3nccnc3C(=O)N2c2ccc(Cl)cn2)CC1 (stereo not drawn)	inactive	
NS(=O)(=O)c1cc(C2(O)NC(=O)c3ccccc32)ccc1Cl (stereo not drawn)		inactive: -7.32%

Compound	Potency	activity, negative = inhibition
CC12CCC(=O)C=C1CCC1C2CCC2(C)C(O)CCC12 (stereo not drawn)		inactive: -2.19%
NCc1cc(=O)[nH]o1	inactive	
C[C@H](CCC(=O)O)[C@H]1CC[C@@H]2[C@H]3CC[C@H]4C[C@H](O)CC[C@]4(C)[C@@H]3CC[C@@]21C	inactive	
COc1cc(CNC(=O)CCCC/C=C\C(C)C)ccc1O	inactive	
CC(=O)C1=C(O)[C@@H]2[C@@H]3c4c[nH]c5cccc(c45)C[C@@H]3C(C)(C)N2C1=O		inactive: -14.4%
CC[C@H]1CN2CCc3cc(OC)c(OC)cc3[C@@H]2C[C@@H]1C[C@H]1NCCc2cc(OC)c(OC)cc21	inactive	
CNC(C)C(O)c1ccccc1 (stereo not drawn)		inactive: 1.68%
O=C1OC(c2cc(I)c(O)c(I)c2)(c2cc(I)c(O)c(I)c2)c2ccccc21	active: 12.6 µM	
C=CCN1C(=O)/C(=C/c2ccc(N3CCOCC3)o2)C(=O)NC1=S		inactive: 0.0651%
CN1CC[C@@]23CCCC[C@@H]2[C@@H]1Cc1ccc(O)cc13		inactive: 3.71%
O=C1NC(=O)N(Cc2ccccc2)C(=O)/C1=C\N1CCCc2ccccc21		inactive: -0.174%
CCC(COC(=O)c1cc(OC)c(OC)c(OC)c1)(c1ccccc1)N(C)C (stereo not drawn)		inactive: -0.299%
Cc1o[nH]c(=O)c1CC(N)C(=O)O (stereo not drawn)		inactive: -3.84%
C[C@]12CC[C@@H]3c4ccc(O)c(O)c4CC[C@H]3[C@@H]1CC[C@@H]2O	active: 14.1 µM	
CCC(CO)NC(=O)C1C=C2c3cccc4[nH]cc(c34)CC2N(C)C1 (stereo not drawn)	inactive	
COC1=C[C@]23CCCN2CCc2cc4c(cc2[C@@H]3[C@@H]1O)OCO4		inactive: 0.96%
C=CC1CN2CCC1CC2C(O)c1ccnc2ccccc12 (stereo not drawn)		inactive: 4.68%
CCCCC/C=C\C/C=C\C/C=C\C/C=C\CCCC(=O)O	inactive	
O=c1[nH]c2ccccc2n1C1CCN(CCCC(c2ccc(F)cc2)c2ccc(F)cc2)CC1	inactive	
CN[C@H](C)[C@H](O)c1ccccc1		inactive: -9.08%
COc1ccc2c(c1)CCC1C2CC[C@@]2(C)C1CC[C@@H]2NCCCCCCN1C(=O)C=CC1=O (stereo partly drawn)		inactive: -12.6%
